Measured values from paper PMC4336329 (PLoS ONE, 2015).
Out of some 310,000 compounds screened, about 14,000 (4.5%) showed an effect of 50% or more. The effect is printed as a negative number. Some of the results follow.

target: human ether-à-go-go-related gene (hERG) potassium channel (human, UniProt Q12809); assay: primary screen, population patch clamp on CHO cells stably expressing hERG
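Further: peak tail current of the secondary pulse compared with the same well before compound.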

Sequence of human ether-à-go-go-related gene (hERG) potassium channel (Q12809 whole entry, looked up): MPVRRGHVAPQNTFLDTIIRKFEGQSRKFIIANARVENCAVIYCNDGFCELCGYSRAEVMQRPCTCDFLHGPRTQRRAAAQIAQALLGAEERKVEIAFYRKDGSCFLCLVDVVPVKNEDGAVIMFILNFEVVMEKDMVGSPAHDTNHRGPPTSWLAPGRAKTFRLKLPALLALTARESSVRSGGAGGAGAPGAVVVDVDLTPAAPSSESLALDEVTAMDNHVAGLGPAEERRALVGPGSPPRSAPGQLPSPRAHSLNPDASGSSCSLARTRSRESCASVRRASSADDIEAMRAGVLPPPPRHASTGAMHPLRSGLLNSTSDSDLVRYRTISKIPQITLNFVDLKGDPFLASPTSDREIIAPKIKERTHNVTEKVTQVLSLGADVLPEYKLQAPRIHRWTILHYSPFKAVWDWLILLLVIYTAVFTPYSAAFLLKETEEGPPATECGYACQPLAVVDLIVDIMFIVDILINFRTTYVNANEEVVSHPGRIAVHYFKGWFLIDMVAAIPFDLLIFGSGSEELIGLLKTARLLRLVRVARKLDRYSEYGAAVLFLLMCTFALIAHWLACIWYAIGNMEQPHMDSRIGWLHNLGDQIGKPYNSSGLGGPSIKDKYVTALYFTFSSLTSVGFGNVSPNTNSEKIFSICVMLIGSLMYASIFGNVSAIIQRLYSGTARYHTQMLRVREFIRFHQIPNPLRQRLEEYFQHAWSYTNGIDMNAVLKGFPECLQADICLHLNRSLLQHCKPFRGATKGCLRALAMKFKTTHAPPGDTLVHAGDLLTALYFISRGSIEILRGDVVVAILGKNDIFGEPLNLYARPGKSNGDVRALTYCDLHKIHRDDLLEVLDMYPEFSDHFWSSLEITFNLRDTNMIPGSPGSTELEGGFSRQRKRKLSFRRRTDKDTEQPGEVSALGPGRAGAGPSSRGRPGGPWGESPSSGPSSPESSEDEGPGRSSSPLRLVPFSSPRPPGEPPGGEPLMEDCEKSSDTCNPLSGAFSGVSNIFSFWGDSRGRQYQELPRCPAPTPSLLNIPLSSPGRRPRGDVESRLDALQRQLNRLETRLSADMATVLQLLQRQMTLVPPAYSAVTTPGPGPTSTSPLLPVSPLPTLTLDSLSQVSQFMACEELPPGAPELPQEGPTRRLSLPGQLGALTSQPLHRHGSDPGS

Row | Structure (SMILES) | hERG current change (%, negative = inhibition) at 10uM [%]
1 | CCCCn1c(N)c(N(CC(C)C)C(=O)c2ccc(OCc3c(C)noc3C)cc2)c(=O)[nH]c1=O | 10.6
2 | CC1CCN(CC(=O)N2c3ccccc3CCc3ccccc32)CC1 | -8.38
3 | CSc1nsc(SC)c1CO | 9.55
4 | COc1ccc(OC)c(NS(=O)(=O)c2ccc(SC)cc2)c1 | -7.15
5 | C=CCn1nnnc1SCC(=O)Nc1cccc(C(F)(F)F)c1 | 9.66
6 | CCCCCCN1C(=O)C(O)=C(C(C)=O)C1c1ccc(Cl)cc1 (stereo not shown) | -5.13
7 | O=C(NCc1ccc2c(c1)OCO2)C1CCCN(C(=O)c2ccc(Cl)cc2)C1 (stereo not shown) | -34.4
8 | COc1ccc(C)cc1Nc1ccc(C(=O)O)cc1[N+](=O)[O-] | 12.8
9 | O=C1COc2ccc(C(=O)COC(=O)Cc3ccc(F)cc3)cc2N1 | -23.8
10 | COc1ccc(/C=C/C(=O)c2ccccc2O)cc1 | 9.13
11 | Cc1c(C(=O)N2CCc3ccccc3C2)oc2ccc(S(=O)(=O)N3CC(C)CC(C)C3)cc12 (stereo not shown) | -3.31
12 | COc1ccccc1CNC(=O)C1CCN(S(=O)(=O)c2cccc3cccnc23)CC1 | -9.39
13 | COc1ccc(-c2sc3cc4c(cc3c2C#CC2(N)CCCCC2)OCO4)cc1 | 24
14 | O=C(Cc1ccc(Cl)cc1)NC1CCCCCC1 | -3.09
15 | Cc1ccc(C(=O)CC2(O)C(=O)N(Cc3ccc4c(c3)OCO4)c3ccccc32)cc1 (stereo not shown) | -1.01
16 | CCCc1[nH]nc2c1C(c1ccccc1OCC)C(C#N)=C(N)O2 (stereo not shown) | 10.7
17 | COc1ccc(/C=C(/NC(=O)c2cccc([N+](=O)[O-])c2)C(=O)O)cc1 | 9.84
18 | CCC(=O)Nc1sc2c(c1C#N)CCC2 | 9.08
19 | COc1ccc(-c2cn(CCC(=O)NCc3ccc(C)cc3)c(-c3ccncc3)n2)cc1 | -21.3
20 | Cn1c(N)c(S(=O)(=O)N2CCCC2)c(=O)n(C)c1=O | 26.2

Row | Structure (SMILES) | hERG current change (%, negative = inhibition) at 10uM [%]
21 | COc1cccc(C(=O)Nc2cc(C)on2)c1OC | 7.5
22 | Cn1c(SCc2cccc(F)c2)nnc1-c1ccccn1 | -8.27
23 | Cc1sc(NC(=S)NC(=O)c2cccs2)nc1-c1ccc(C(C)C)cc1 | 13.9
24 | Cn1c(=O)c([N+](=O)[O-])c(NCc2ccccc2)c2ccccc21 | 9.94
25 | COCc1cc(CN2CCN(CCCc3ccccc3)C(CCO)C2)ccc1OC (stereo not shown) | -66.1
26 | Cc1cccc(Oc2ccc(NC(=O)C3=CC=CN4CCS(=O)(=O)N=C34)cc2)c1 | 8.71
27 | CCCC(=O)Nc1nnc(SCC(=O)N2CCN(c3ccccc3)CC2)s1 | 24.5
28 | COc1ccccc1C(=O)Oc1ccc(N2C(=O)CCC2=O)cc1 | -0.543
29 | C/C=C\C(=O)Nc1cccc(C2=NOC3(C2)C[C@H](C(N)=O)N(C(=O)[C@H]2CCC(=O)N2)C3)c1 (stereo partly shown) | -7.15
30 | Cn1ncc(N=Cc2c(O)ccc3ccccc23)c1C(=O)Nc1cccc(Cl)c1 | 18.9
31 | CS(=O)(=O)N(CC(=O)NCC1CCCO1)c1cc(Cl)cc(Cl)c1 (stereo not shown) | 2.03
32 | Cc1ccc(CSCc2ccc(C(=O)NCC3CCCO3)o2)cc1 (stereo not shown) | -28.8
33 | COc1ccc(OCC(=O)N2CCN(C(=O)c3cccc4ccccc34)CC2)cc1 | -22
34 | O=S(=O)(c1ccc(N2CCCC2)nc1)N1CCCC1 | 8.29
35 | O=C(NNC(=O)C1CC=CCC1)c1cccc(Br)c1 (stereo not shown) | 16.4
36 | CCOc1ccc(S(=O)(=O)N2CCCC2)cc1 | 3.2
37 | CC1CC(OCC(O)CN2CCCCC2C)CC(C)(C)C1.Cl (stereo not shown) | -25.8
38 | Cc1c(OCC(=O)N(C)C)ccc2c3c(c(=O)oc12)CCCCC3 | -11.5
39 | O=C(NCc1ccccc1)C1(c2cccc(F)c2)CCCC1 | 4.62
40 | CCCc1cc(C(=O)Nc2ccc(C(C)=O)cc2)no1 | 1.35

Row | Structure (SMILES) | hERG current change (%, negative = inhibition) at 10uM [%]
41 | COC(CNC(=O)c1cc(Sc2nnc(C)s2)nc2ccccc12)OC | -5.35
42 | NS(=O)(=O)c1cnccc1Nc1cccc(F)c1 | 11.2
43 | CCC(=O)Nc1nnc(S(=O)(=O)N(CC)c2ccc(OC)cc2)s1 | 25.5
44 | O=C1CN(S(=O)(=O)c2cc(Cl)ccc2Cl)CCN1 | 8.51
45 | COc1ccc(-c2noc(CN3CCOCC3)n2)cc1OC | -0.62
46 | COc1ccc(NS(=O)(=O)c2cc(NC(=O)c3cnc(C)cn3)ccc2N2CCCC2)cc1 | -1.61
47 | O=C(c1ccco1)N1CCN(C2CC(=O)N(c3ccccc3)C2=O)CC1 (stereo not shown) | 8.94
48 | CCOC(=O)c1sc(NC(=O)CCN2CCOCC2)c(C(=O)OCC)c1C | -2.58
49 | CCOC(=O)C1CCCN(c2c(NCCCN3CCCC(C)C3)c(=O)c2=O)C1 (stereo not shown) | 6.57
50 | Cc1ccc(S(=O)(=O)N2CCN(C3CCN(Cc4ccccc4)CC3)CC2)cc1.O=C(O)C(=O)O | -76.6
51 | Cc1nc(NCc2ccco2)c2oc3ccccc3c2n1 | -29.8
52 | CC(C)(C)c1cc[n+](C2=C([O-])c3ccccc3C(=O)/C2=N\S(=O)(=O)c2cccs2)cc1 | -44
53 | CCOC(=O)c1c(C)[nH]c(C)c1S(=O)(=O)NCC(=O)Nc1ccccn1 | 17.9
54 | Cc1ccc(-c2csc(C3=C(O)CN(NC(=O)c4ccco4)C3=N)n2)cc1 | 11.1
55 | Cc1nnc(SCC(=O)c2ccc(Br)cc2)s1 | -4.08
56 | O=C(COc1ccc(Cl)cc1)NC1CC1 | 5.47
57 | COC(=O)c1cc(Cl)c(NC(=O)c2ccc(F)cc2)cc1OC | -2.56
58 | COc1ccc(-c2nn(-c3ccccc3)cc2/C=C/C(=O)OCC(=O)Nc2ccc(C#N)cc2)cc1 | 6.33
